Laboratory results as given in ChEMBL document CHEMBL1157539, “Thousands of chemical starting points for antimalarial lead identification” (Nature, 2010).
The full ranking holds about 13,000 compounds; the median of “IFI” is about 4, and the highest 2% start at about 17. The list shows a part of the results.

Test: GSK_TCMDC: Inhibition Frequency Index (IFI). The number of non-kinase HTS assays where a compound showed > 50 % inhibition, expressed as a percentage of the number of such assays in which the compound was tested (-0 is zero)
Assay type: functional

Row | SMILES | IFI [%]
1 | CCCCCCN1CCC(NCc2ccc(OCCN3CCCC3)cc2)CC1 | 4
2 | CN(C)Cc1c(O)ccc2[nH]c(-c3ccc(F)cc3F)nc12 | 3.61
3 | Cc1ccc(O)cc1Nc1c(C(N)=O)cnc2ccc(-c3cncs3)cc12 | 5.11
4 | Cc1cc(N2CCOCC2)nc(Nc2ccc(NC(=O)Nc3ccc(F)cc3)cc2)n1 | 3.92
5 | CC1(C)C(=O)Nc2ccccc2N1C(=O)CN1CCN(c2ccccc2O)CC1 | -0
6 | CCCC(CCC)n1ccc2c3c(N)nc(N)nc3ccc21 | 8.97
7 | FC(F)(F)c1ccc2[nH]ccc(=NN=Cc3cccnc3)c2c1 | 0
8 | Cc1ccc2nc(C)n(C3CCN(C(=O)Cc4ccccc4C)CC3)c2c1 | -0
9 | COc1cc(Cc2c(C)nc3nc(N)nc(N)c3c2C)c(Br)c(OC)c1OC | 1.46
10 | CC(C)Oc1cc2c(cc1NS(=O)(=O)c1ccc(-c3ccc(Cl)cc3)cc1F)CCN(C)CC2 | 9.52
11 | Fc1ccc2[nH]cc(CCNCc3ccc(-c4cccc(-c5nc6ccccc6[nH]5)c4)cc3)c2c1 | 17.8
12 | N#Cc1ccc2c(c1)CCN(CCC1CCC(NC(=O)/C=C/c3ccc(Cl)c(Cl)c3)CC1)CC2 (centres undefined) | 8.11
13 | CCOc1cc(C(=O)NC2CC(C)(C)N(C)C(C)(C)C2)ccc1-c1nc2cc(Cl)c(Cl)cc2[nH]1 | 6.98
14 | CC(CN(C)C)C(=O)Nc1ccc(-c2ccc(-c3nc4cc(F)ccc4[nH]3)cc2)cc1 (centres undefined) | 3.42
15 | CCC(CSC1CCCCC1)N(C)CCN(C)C(CC)CSC1CCCCC1 (centres undefined) | 12.4
16 | CCCCN(Cc1cccc(C(F)(F)F)c1Cl)c1ccc(C(O)(C(F)(F)F)C(F)(F)F)cc1 | 4.38
17 | Cc1ccc(O)cc1Nc1ccnc2cc(-c3csc(CNCCN4CCOCC4)n3)ccc12 | 4.17
18 | O=C(NC(=S)Nc1cc(C(F)(F)F)cc(C(F)(F)F)c1)c1ccc(Cl)cc1 | 4.38
19 | CCCCOc1cc(OC)c2ccccc2c1CCNCCCCNCCc1c(OCCCC)cc(OC)c2ccccc12 | 19.1
20 | Cc1cccc(C)c1CNc1ccnc2cc(Br)ccc12 | 0
21 | CCCC(C)NC(=O)/C=C/c1ccccc1-c1cccc(OC)c1 (centres undefined) | 2.94
22 | CCCCCCCN1CC[C@@H](CCC(O)c2ccnc3ccc(OC)cc23)[C@@H](CC)C1 (some centres undefined) | 9.22
23 | Cc1ccc2nc(C)cc(Nc3ccccc3O)c2c1 | -0
24 | O=c1cc(NCCCNCc2[nH]c3cc(Cl)cc(Cl)c3c2Cn2cccn2)[nH]c2ccccc12 | 5

Row | SMILES | IFI [%]
25 | Cn1nc(-c2ccc(NC(=O)Nc3cc(C(F)(F)F)ccc3F)c(F)c2)c2cnc(NCCCN3CCOCC3)nc21 | 6.57
26 | Cc1n[nH]c2cc(Nc3ccnc(Nc4ccc(CN5CCOCC5)cc4)n3)ccc12 | 5.36
27 | CCCCCCCCc1c(C)[nH]c(C)c(Cl)c1=O | 6.57
28 | CN1CCCC1CCNCc1cccc(-c2cnc(N(C)C3CCCCC3)nc2)c1 (centres undefined) | 11
29 | Cc1ccc2c(Cl)c(C(=O)N3CCCc4ccccc43)sc2c1 | 2.1
30 | Cc1c(CC(=O)N(C)C2CCN(CCCCCNC(=O)/C=C/c3ccc(Cl)c(Cl)c3)CC2)sc2ccc(Cl)cc12 | 7.97
31 | CC(C)C[C@@H](C(=O)N[C@@H](CCCCNC(=O)OCc1ccccc1)C(=O)Nc1nccs1)[C@H](C)N(O)C=O | 1.41
32 | Cc1c(CCC#N)c(NCc2ccccc2)n2c(nc3ccccc32)c1C#N | 1.38
33 | O=C(Nc1ccc(Cl)cc1)Nc1ccc(Cn2ncc(N3CCCNCC3)c(Cl)c2=O)cc1 | 8.82
34 | CC(C)NC(=N)NN=Cc1ccc(Cl)c(Cl)c1 | 1.48
35 | CCOC(=O)COc1cccc(CNc2ccc3nc(N)nc(N)c3c2)c1 | 4.2
36 | O=C(COc1ccccc1)N(Cc1ccc(-c2ccc(CNC3Cc4ccccc4C3)cc2)cc1)C1CCNCC1 | 3.55
37 | c1cn(-c2ccc(CNc3nccc(Nc4ccc(OCCN5CCOCC5)cc4)n3)cc2)cn1 | -0
38 | C=CCc1cc(SC)ccc1Oc1ccc(N)cc1 | 2.17
39 | Cc1ccc(NC(=O)c2ccc(CN3CCCN(CC4CCCCC4)CC3)cc2)cc1 | 9.6
40 | Cc1cc(NCC(C)C)c2[nH]nc(-c3ccccc3)c2n1 | 2.1
41 | CN1CCC[C@@H](Oc2cc3c(cc2Br)CCN3C(=O)Nc2ccc(-c3ccncc3)c(Cl)c2)C1 | 7.91
42 | COc1ccc(NC(=O)/C=C/c2ccccc2Cl)cc1OCCN1CCC(NCc2ccccc2)CC1 | 2.88
43 | Cc1ccc2nc(N/C(N)=N/C(=O)NC3CCCCC3)nc(C)c2c1 | 3.42
44 | c1cc(CNc2ncc(-c3ccsc3)c(-c3nccs3)n2)ccn1 | 6.67
45 | Fc1cc(Cl)ccc1Nc1ccnc2cc(-c3ccc(CN4CCCCC4)o3)ccc12 | 7.3
46 | COc1cc(C(=O)Nc2cccc(-c3cn4ccc(C)cc4n3)c2)cc(OC)c1OC | 3.13
47 | c1ccc(-c2cc(NCCCn3ccnc3)nc(-c3cccnc3)n2)cc1 | 2.17
48 | Cc1cc(F)ccc1C1CCN(CCCCNC(=O)c2ccc(NC(=O)c3ccc(Cl)cc3)cc2)CC1 | 5.31

Row | SMILES | IFI [%]
49 | CCn1c(-c2nonc2N)nc2cnc(Oc3cccc(NC(=O)c4ccc(OCCN(C(C)C)C(C)C)cc4)c3)cc21 | 5.66
50 | CCCc1cc(NCC)nc(Nc2ccc(C)cc2)n1 | 7.58
51 | O=C(Nc1cccc(CN2CCCN(Cc3cccc(O)c3)CC2)c1)c1cc2ccccc2s1 | 8.46
52 | CC1CCC2(CC1)NC(N)=NC(=N)N2OCCCCCCCCO (centres undefined) | 4.23
53 | CN(C)CCCNC(=O)c1ccccc1Sc1ccccc1C#N | 0.73
54 | Cc1cc(=O)c(-c2ccc(Oc3cccc(OC(F)(F)F)c3)cc2)c(C)[nH]1 | 3.76
55 | CCCCCCC1(C)N=C(N)N=C(N)C1c1ccc(Cl)c(Cl)c1 (centres undefined) | 2.78
56 | Cc1cccc(/C=C/C(=O)NC2CCC(N3CCC(c4ccccc4C)CC3)CC2)c1 (centres undefined) | 8.62
57 | Cn1cccc1C(=O)C(=O)Nc1cccc(-c2ccc(-c3nc4cc(C(F)(F)F)ccc4[nH]3)cc2)c1 | 4.59
58 | COc1ccc(F)cc1-c1ccc(C(=O)N2CCCN(c3ccc(C#N)cn3)CC2)cc1 | 5.41
59 | CCCN(CC)CCOC(=O)c1ccccc1 | -0
60 | N#Cc1ccc(N(CCOc2ccc3c(c2)CCC(=O)N3)Cc2ccccc2C(F)(F)F)cc1C(F)(F)F | 3.08
61 | Clc1ccc2c(N3CCCNCC3)ccnc2c1 | 2.08
62 | Cc1ccc2nc(-c3ccc(/C=C/C(=O)NC4CCN(Cc5ccccc5)CC4)cc3)[nH]c2c1C | 1.48
63 | Cc1cc(NCC2CCN(CC3CCCCC3)C2)nc(Nc2ccc(Cl)cc2)n1 (centres undefined) | 2.63
64 | CCCC(C)Nc1nc(C)cc(N[C@@H](CC(C)C)C(=O)NC2CCCC2)n1 (some centres undefined) | 4.76
65 | O=C(NCCCCN1CCC(c2ccc3c(c2OCCO)CCCC3)CC1)c1ccc(-c2ccc(C(F)(F)F)cc2)cc1 | 7.55
66 | CN(Cc1cccc(F)c1)C1CCN(c2cc(NC(=O)c3ccc(F)cc3)ccn2)CC1 | -0
67 | CC(C)c1sc(N2CCN(C)CC2)nc1C(=O)NCCc1ccc(Br)cc1 | 6.12
68 | Cc1ccccc1C1CCN(C2CCC(NC(=O)c3cc(-c4ccccc4)oc3C)CC2)CC1 (centres undefined) | 10.5
69 | CCN(CC)/C(=N/C(=N)NCc1ccc(Cl)cc1)NCCCCCCN/C(=N\C(=N)NCc1ccc(Cl)cc1)N(CC)CC | 15.1
70 | CCCC(=O)Nc1ccc(OCCN(Cc2ccccc2OC(F)(F)F)c2ccc(C(F)(F)F)c(C#N)c2)cc1 | -0
71 | COc1ccc2nc(-c3cc(-c4ccc(NC(=O)CN5CCOCC5)cc4)cnc3N)[nH]c2c1 | 10.5
72 | COc1ccc(CNC2CCN(C)CC2)cc1-c1ccc(S(=O)(=O)NCc2ccccc2)cc1 | 11.4

Row | SMILES | IFI [%]
73 | Oc1ccc2c(c1CNC1CCCCC1)CCCC2 | 0.71
74 | COc1cc(C(=O)N2CCC(CCN3CCC4(CC3)CN(S(C)(=O)=O)c3ccccc34)CC2Cc2ccc(Cl)c(Cl)c2)cc(OC)c1OC (centres undefined) | 5.34
75 | CCn1c(-c2nonc2N)nc2c(-c3cccc(NC(=O)Nc4cccc(C#N)c4)c3)ncc(OCCCN)c21 | 16.7
76 | O=C(Nc1cc(F)cc(F)c1)N1CCOC(CCN2CCC3(CCc4ccccc43)CC2)(c2ccc(Cl)c(Cl)c2)C1 (centres undefined) | 8.22
77 | CC(C)CNCc1cccc(-c2cccc(CN(CCCN3CCN(C)CC3)C(=O)Nc3ccccc3)c2)c1 | 3.65
78 | CC(=O)Oc1c(Cl)c(C)nc(C)c1-c1ccc(Oc2ccc(OC(F)(F)F)cc2)cc1 | 6.35
79 | O=[N+]([O-])c1cccc(NC(=S)N2CCCN(Cc3ccc(F)cc3F)CC2)c1 | 2.24
80 | Fc1ccccc1-c1cc(Nc2ccncc2)nc(-c2cccnc2)n1 | 10.4
81 | CN1CCCCC1CCc1cc(C(=O)Nc2ccc(-c3ccc(O)cc3)cc2)ccc1O (centres undefined) | 1.46
82 | Cc1cc(-c2nc3ccc(N4CCN(C)CC4)cc3[nH]2)nn1Cc1cc(Cl)ccc1OCC(C)C | 17.1
83 | O=C(NCC1CC1)C1CCN(C(c2ccccc2)c2cc(F)cc(F)c2)CC1 (centres undefined) | 2.07
84 | CC(C)(C)c1ccc(NC(=O)c2cccc(CN3CCCN(Cc4cccc(Cl)c4)CC3)c2)cc1 | 7.86
85 | CCOC(=O)C(C)(C)Oc1ccc(C(=C2CC(C)(C)CC(C)(C)C2)c2ccc(O)cc2)cc1 | 2.4
86 | O=C(Nc1ccc(Cl)cc1)Nc1ccc2nonc2c1 | 12.8
87 | NC(=O)c1cccc(C(=O)Nc2ccc(-c3cccc(-c4nc5cc(C(F)(F)F)ccc5[nH]4)c3)cc2)c1 | 3.81
88 | CCCCSc1nc2c(c(=O)n1Cc1ccco1)C1(CCCCC1)Cc1ccccc1-2 | 4.35
89 | Cc1cc(OCCCN2CCC(NS(=O)(=O)c3ccc(Cl)c(Cl)c3)CC2)c2ccccc2n1 | 5.36
90 | CC(=O)c1cccc(NC(=O)C2c3ccccc3C(=O)N(CC(C)C)C2c2cccs2)c1 (centres undefined) | 2.27
91 | Cc1cc(C(=O)CN2C(=O)NC(C)(c3ccc4ccccc4c3)C2=O)c(C)n1Cc1ccco1 (centres undefined) | 3.64
92 | Cc1cccc2nc(-c3cccc(-c4cccc(NC(=O)NCc5cccc(F)c5)c4)c3)[nH]c12 | 7.92
93 | CCn1c(C)cc(C=C2SC(=Nc3ccccc3)NC2=O)c1C | 6.67
94 | COc1ccc2nccc([C@@H](O)CN3CCC(c4cc(-c5ccc(Cl)cc5)[nH]n4)CC3)c2n1 | 4.58
